Data reported in PubChem BioAssay AID588855 (National Center for Advancing Translational Sciences (NCATS), 2011).
The whole screen tested about 410,000 compounds, of which about 5,000 (1.2%) were called active. This list was built around the results that the source calls inconclusive (neither active nor inactive); the mix of calls is not that of the screen. Calls come from the whole dose curve; as a rule, active = well fitted inhibition curve with a large enough effect; inconclusive = small, poorly fitted or top-dose-only effect; inactive = no such curve, though single readings can be large or run the other way. Where the call is inconclusive, the potency comes from a doubtful curve fit.

Assay: qHTS for Inhibitors of TGF-b; note: nearly all actives have a fitted effect of over 65% in size
Details: HepG2 CAGA-GFP TGF-b/SMAD3 reporter, GFP fluorescence, 18 h, TGF-beta stimulated, 500 pg/mL final; series mostly up to 46.1 µM; activity, negative = inhibition: at the top concentration
Summary of the method: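 HEPG2 CAGA-GFP reporter cells (1000/well, DMEM with 1% FBS) received compounds, then recombinant TGF-beta at 500 pg/mL final for 18 hours at 37 degrees C. Per-cell GFP summed per well was normalised to unstimulated and stimulated DMSO controls before curve fitting.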
% is set by controls: 0 for no effect and ±100 for the full control effect; potency is the fitted concentration of half-maximal effect; tags give direction and shape of the fitted curve.

Row | Compound | Potency | activity, negative = inhibition
1 | COc1ccc(-c2n[nH]c3c2C(c2ccc(Cl)cc2Cl)NC3=O)cc1 (stereo not drawn) | inconclusive: 22.4 µM [inhibitor, single point] | –
2 | CCN(CCCNC(=O)c1ccc(Sc2ccc(C)cc2)c(NC(C)=O)c1)c1cccc(C)c1 | – | inactive: -2.89%
3 | CCCCNc1c(-c2ccc(SC3CCCCC3)cc2)nc2ccccn12 | inconclusive: 25.1 µM [inhibitor, single point] | –
4 | CC(=O)Nc1ccc(S(=O)(=O)N2CCN(c3cc4c(cc3[N+](=O)[O-])n(C)c(=O)n4C)CC2)cc1 | inconclusive: 12.6 µM [inhibitor, partial curve, poor fit] | –
5 | NS(=O)(=O)c1ccc(CCNC(=O)CN2CCN(c3cccc(Cl)c3)CC2)cc1 | – | inactive: -32.8%
6 | COc1ccc(CN2CCN(Cc3ccc(C)cc3)CC2)c(OC)c1 | inconclusive: 4.47 µM [inhibitor, single point] | –
7 | CCN(CC)S(=O)(=O)c1ccc(N2CCOCC2)c(NC(=O)c2ccc(OC)c([N+](=O)[O-])c2)c1 | – | inactive: -12.3%
8 | O=C(c1ccccc1)N(Cc1ccc(F)cc1)Cc1nc2ccccc2c(=O)[nH]1 | inconclusive: 20 µM [inhibitor, partial curve, poor fit] | –
9 | COc1ccc(S(=O)(=O)N(C)CC(=O)NCc2ccco2)cc1OC | – | inactive: -7.65%
10 | c1ccc(COc2cccc(CNCc3ccccn3)c2)cc1 | – | inactive: -10.5%
11 | Cc1ccc(CNC(=O)c2cc(S(=O)(=O)N3CCCC(C)C3)cn2C)cc1 (stereo not drawn) | inconclusive: 15.8 µM [inhibitor, single point] | –
12 | CC(C)Cc1nc(N2CCN(C(=O)C(C)C)CC2)c(C#N)c2c1CCC2 | inconclusive: 8.91 µM [inhibitor, partial curve] | –
13 | Cc1cccc(N2CCN(C(=O)c3cccc(N4C(=O)C5CC=CC(C)C5C4=O)c3)CC2)c1C (stereo not drawn) | inconclusive: 35.5 µM [inhibitor, single point] | –
14 | Cc1cccc(Nc2nc(Nc3cccc(C)c3)nc(N3CCOCC3)n2)c1 | inconclusive: 35.5 µM [inhibitor, single point] | –
15 | Cc1cc2c(n1-c1ccc(C(=O)NCC(C)c3ccccc3)cc1)CCCC2 (stereo not drawn) | inconclusive: 35.5 µM [inhibitor, single point] | –
16 | O=C(OCC(=O)N1CCCCCC1)c1ccc(Br)c(S(=O)(=O)N2CCOCC2)c1 | inconclusive: 14.1 µM [inhibitor, single point] | –
17 | CCOc1ccc(CNC(=O)c2ccc3c(c2)sc2nc(-c4ccc(OC)cc4)cn23)cc1 | – | inactive: -11.5%
18 | O=C(CSc1nnc(SCc2cccc3ccccc23)s1)c1ccc2c(c1)OCO2 | – | inactive: 0%
19 | COc1cc(-c2cnc3c(NC=O)cc(-c4ccc(S(C)(=O)=O)cc4)cn23)cc(OC)c1OC | – | inactive: 1.99%
20 | Cc1ccccc1Nc1c(-c2cccc(O)c2)nc2ccc(Br)cn12 | inconclusive: 15.8 µM [inhibitor, single point] | –
21 | O=S(=O)(NCc1ccc(F)cc1)c1ccc2[nH]c3c(c2c1)CCCCC3 | inconclusive: 20 µM [inhibitor, single point] | –
22 | Cc1nc(SCC(N)=O)[nH]c(=O)c1CCC(C)C | inconclusive: 3.16 µM [inhibitor, single point] | –
23 | Cc1ccc(NS(=O)(=O)c2c(C)ccc3nsnc23)c([N+](=O)[O-])c1 | inconclusive: 7.08 µM [inhibitor, partial curve] | –

Row | Compound | Potency | activity, negative = inhibition
24 | COc1ccc(/C=N/NC(=O)c2cc(C34CC5CC(CC(C5)C3)C4)[nH]n2)cc1O | inconclusive: 35.5 µM [inhibitor, single point] | –
25 | Oc1c(C(c2cccs2)N2CCN(c3cccc(Cl)c3)CC2)sc2ncnn12 (stereo not drawn) | – | inactive: -23.3%
26 | CC(C)(C=O)Cc1cc(C(C)(C)C)c(O)c(C(C)(C)C)c1 | – | inactive: -6.33%
27 | O=C1C2C3C=CC(C3)C2C(=O)N1c1ccc(Cc2ccncc2)cc1 (stereo not drawn) | inconclusive: 12.6 µM [inhibitor, single point] | –
28 | O=C(NCc1cccc(Cl)c1)c1ccc(CS(=O)Cc2ccccc2Cl)o1 (stereo not drawn) | inconclusive: 17.8 µM [inhibitor, single point] | –
29 | Clc1nnc(NN=C2CCCC2)c2ccccc12 | inconclusive: 12.6 µM [inhibitor, single point] | –
30 | COc1ccc(NC(=O)C2(C)Cc3c(-c4ccc(NC(C)=O)cc4)ccnc3O2)cc1 (stereo not drawn) | – | inactive: 14.1%
31 | Cc1cc(NC(=O)CSc2nc(-c3cccs3)cc(C(F)(F)F)n2)no1 | inconclusive: 2 µM [inhibitor, partial curve, poor fit] | –
32 | COC(=O)c1cc2oc(C)cc2n1Cc1cccc(Cl)c1 | – | inactive: 87.9%
33 | O=[N+]([O-])c1ccc(C(O)CN=Cc2ccc(O)cc2O)cc1 (stereo not drawn) | inconclusive: 35.5 µM [inhibitor, single point] | –
34 | C[C@@H](NC(=O)c1nc[nH]c1C(=O)NC1CCN(C(=O)OC(C)(C)C)CC1)c1ccccc1 | inconclusive: 1 µM [inhibitor, full curve, poor fit] | –
35 | CCCn1c(C)nc2cc(Cl)c(N3CCN(c4nc(-c5ccc(C)cc5)cs4)CC3)cc21 | inconclusive: 15.8 µM [inhibitor, partial curve, poor fit] | –
36 | CCOc1cccc(N(C(=O)C2COc3ccccc3O2)C(C(=O)NC2CCCCC2)c2ccc(O)cc2)c1 (stereo not drawn) | – | inactive: 0%
37 | O=C(Nc1ccc(F)cc1)C(Sc1nc2ccccc2[nH]1)c1ccccc1 (stereo not drawn) | inconclusive: 35.5 µM [inhibitor, single point] | –
38 | COc1ccc(NC(=O)C#Cc2ccccc2)cc1 | inconclusive: 14.1 µM [inhibitor, single point] | –
39 | CCO[C@H]1OC(C(=O)N2CCN(Cc3ccc4c(c3)OCO4)CC2)=C[C@@H](C2CC2)[C@@H]1CCCO | inconclusive: 35.5 µM [inhibitor, single point] | –
40 | O=C1CCC(C(=O)N2CCN(c3ccccc3)CC2)CN1Cc1ccc(Cl)cc1 (stereo not drawn) | – | inactive: -14.8%
41 | COc1ccccc1N1CCN(Cc2cnc3ccc(Cl)cn23)CC1 | – | inactive: 21.5%
42 | O=C(CCC(=O)Nc1cccnc1)Nc1cccnc1 | – | inactive: 6.19%
43 | c1ccc(-c2nc(-n3ccnc3)nc(-n3ccnc3)n2)cc1 | – | inactive: 0%
44 | O=[N+]([O-])c1ccc(N=Nc2ccc(O)c3ccccc23)cc1 | inconclusive: 35.5 µM [inhibitor, single point] | –
45 | O=S(=O)(O)c1cc(O)c2c(O)c(N=Nc3cc(Cl)ccc3O)c(S(=O)(=O)O)cc2c1 | – | inactive: -20.2%
46 | Cc1cccc(C(C)C)c1NC(=O)C1CN(S(=O)(=O)c2ccccc2)CCN1S(=O)(=O)c1ccccc1 (stereo not drawn) | inconclusive: 14.1 µM [inhibitor, single point] | –

Row | Compound | Potency | activity, negative = inhibition
47 | COc1ccc(CN(C(=O)c2nsc(Cl)c2Cl)C(C(=O)NC2CCCC2)c2ccc(C)cc2)cc1 (stereo not drawn) | inconclusive: 11.2 µM [inhibitor, partial curve, poor fit] | –
48 | COc1ccc(-c2c(=O)n(OCc3ccccn3)c3ccccc3[n+]2[O-])cc1OC | – | inactive: -0.468%
49 | CC(C)CC(N)c1csc(Nc2ncccn2)n1 (stereo not drawn) | active: 11.2 µM | –
50 | OC1(c2cccc(C(F)(F)F)c2)CCN(c2ncnc3c2[nH]c2ccc(F)cc23)CC1 | inconclusive: 14.1 µM [inhibitor, partial curve, poor fit] | –
51 | Cc1cc(-c2ccccc2)nc2[n+]1CCN2C | inconclusive: 20 µM [inhibitor, partial curve, poor fit] | –
52 | COc1ccccc1NC(=S)NCCSc1ccc(C)cc1 | inconclusive: 11.2 µM [inhibitor, single point] | –
53 | Cc1ccc(C)c(N2CCN(C(=O)c3ccc(CSc4nc5ccncc5[nH]4)cc3)CC2)c1 | inconclusive: 11.2 µM [inhibitor, partial curve, poor fit] | –
54 | COc1ccc(/C=C2\CN(Cc3ccccc3)C/C(=C\c3ccc(OC)c(O)c3)C2=O)cc1O | active: 5.01 µM | –
55 | CN(C)c1nc(OCCNC(=O)Nc2ccccc2)nc(N2CCCCC2)n1 | – | inactive: 5.21%
56 | CC1CCN(c2ccc(-c3cccc(NS(=O)(=O)c4ccc(Cl)s4)c3)nn2)CC1 | inconclusive: 22.4 µM [inhibitor, single point] | –
57 | NC(=O)CC(NC(=O)Cc1ccc(Br)cc1)c1ccc(N2CCC(Cc3ccccc3)CC2)c([N+](=O)[O-])c1 (stereo not drawn) | inconclusive: 12.6 µM [inhibitor, partial curve, poor fit] | –
58 | Fc1ccc(NCc2nc3ccccc3n2CCOc2ccccc2Cl)cc1 | inconclusive: 11.2 µM [inhibitor, single point] | –
59 | CC1CCc2c(sc3nnn(CC(=O)Nc4ccccc4Cl)c(=O)c23)C1 (stereo not drawn) | – | inactive: -6.29%
60 | COc1ccccc1N(CC(=O)Nc1ccccc1)S(=O)(=O)c1cccs1 | – | inactive: -2.23%
61 | Cc1nc(Sc2nnnn2C)c2c3c(sc2n1)CCC3 | inconclusive: 5.62 µM [inhibitor, single point] | –
62 | CN(Cc1cc(Cl)cc(Cl)c1)[C@H]1C[C@H]2c3[nH]c4ccccc4c3CCN2C(=O)[C@H]1CO | inconclusive: 20 µM [inhibitor, single point] | –
63 | CCOc1ccc(-c2nnn(CC(=O)NCc3ccccc3)n2)cc1 | inconclusive: 14.1 µM [inhibitor, single point] | –
64 | O=C(CCc1ccc(S(=O)(=O)N2CCOCC2)cc1)Nc1ccccc1F | – | inactive: -7.04%
65 | CCCCCC(C)n1[nH]c(=O)cc1N (stereo not drawn) | inconclusive: 35.5 µM [inhibitor, single point] | –
66 | COc1ccc(NC(=O)CCc2nnc3ccc(N4CCN(c5cccc(OC)c5)CC4)nn23)cc1 | – | inactive: 6.49%
67 | CSc1nc2sc3c(c2c(=O)n1-c1ccc(C)cc1)CCCC3 | – | inactive: -0.578%
68 | CC1CCN(C(=O)c2ccc(CSc3nc4ccncc4n3Cc3ccc(F)cc3)cc2)CC1 | inconclusive: 22.4 µM [inhibitor, single point] | –
